In PubChem BioAssay AID1347428 (National Center for Advancing Translational Sciences (NCATS), 2020):
Out of some 91,000 compounds screened, about 290 (0.32%) were called active. The shares of active, inactive and inconclusive entries below differ from those in the screen. Calls come from the whole dose curve; as a rule, active = well fitted inhibition curve with a large enough effect; inconclusive = small, poorly fitted or top-dose-only effect; inactive = no such curve, though single readings can be large or run the other way. Potencies beside an inconclusive call are fits to weak or partial responses and may not hold up.

Target: Single-stranded DNA cytosine deaminase (Homo sapiens) (UniProt Q9GZX7)
UniProt Q9GZX7, sequence (Q9GZX7 whole entry, looked up): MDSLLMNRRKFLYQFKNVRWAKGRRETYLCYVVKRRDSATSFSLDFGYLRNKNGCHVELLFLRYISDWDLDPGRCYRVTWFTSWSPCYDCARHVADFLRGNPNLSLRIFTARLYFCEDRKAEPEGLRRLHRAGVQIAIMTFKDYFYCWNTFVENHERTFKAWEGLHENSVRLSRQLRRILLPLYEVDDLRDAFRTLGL
Test: Primary qHTS assay for inhibitors of Activation Induced Cytidine Deaminase (AID): AID signal; note: nearly all actives have a fitted effect of over 25% in size
Details: AID deamination FRET fluorescence, UDG-coupled, 4 h; activity change, negative = inhibition: at 115 µM (top of the series)
% is set by controls: 0 for no effect and ±100 for the full control effect; potency is the fitted concentration of half-maximal effect; tags give direction and shape of the fitted curve.

Row | Compound | activity change, negative = inhibition | Potency
1 | NS(=O)(=O)c1ccc(N/N=C/c2cccc(Cl)c2)c([N+](=O)[O-])c1 | inactive: -15.6% | 
2 | O=C(CSc1nc(-c2ccco2)nc2ccccc12)N1CCCCCCC1 | inactive: -25.4% | 
3 | CCOc1ccc(Nc2nc(-c3ccccc3)c(C(=O)Nc3cccnc3)s2)cc1 | inactive: 9.97% | 
4 | Cc1ccc(C)c(N2CCN(C(=O)c3cccn3-c3nnc(N4CCCCC4)s3)CC2)c1 |  | inconclusive: 79.4 µM [inhibitor, partial curve, poor fit]
5 | CC1CCN(C(=O)CN2CCN(c3nc(C(C)C)c4c(c3C#N)CCC4)CC2)CC1 |  | inconclusive: 50.1 µM [inhibitor, partial curve, poor fit]
6 | Cc1ccccc1OCC(=O)Nc1ccccc1C(=O)OCc1cc(=O)n2c(C)csc2n1 | inactive: 107% | 
7 | CCCCn1c(CNC(=O)C23CC4CC(CC(C4)C2)C3)nnc1SCC(=O)Nc1ccccc1 |  | inconclusive: 70.8 µM [inhibitor, single point]
8 | CC(C)(c1ccc(Oc2ccc(C(=O)O)c(C(=O)O)c2)cc1)c1ccc(Oc2ccc(C(=O)O)c(C(=O)O)c2)cc1 |  | inconclusive: 50.1 µM [inhibitor, partial curve, poor fit]
9 | O=C(Nc1cccc(Cl)c1)c1ccc2nc(Cc3ccccc3)oc2c1 |  | inconclusive: 25.1 µM [inhibitor, partial curve]
10 | CCc1ccc(C(=O)c2cnc3ccc(C)cc3c2S(=O)(=O)c2ccc(OC)cc2)cc1 |  | inconclusive: 89.1 µM [inhibitor, full curve]
11 | Cc1oc(-c2cccc(Cl)c2)nc1CN1CCCC(C(=O)N2CCN(c3ccc(F)cc3)CC2)C1 (stereo unspecified) |  | inconclusive: 44.7 µM [inhibitor, partial curve, poor fit]
12 | COc1c(Cl)cc(C(=O)N(Cc2ccc(C)o2)C2CCS(=O)(=O)C2)cc1Cl (stereo unspecified) | inactive: -20.6% | 
13 | CCOc1ccc(-n2c(CC)nc3c(cnn3-c3ccc(Cl)cc3)c2=O)cc1 |  | inconclusive: 89.1 µM [inhibitor, single point]
14 | N#Cc1ccc(OCCN2CCCc3ccccc32)cc1 | inactive: -5.3% | 
15 | CCN(C(=O)c1cc2c(=O)n3cccc(C)c3nc2s1)c1ccc(C)c(C)c1 |  | inconclusive: 20 µM [inhibitor, full curve, poor fit]
16 | CCOc1ccc(C(=O)Nc2ccc(-n3nncc3-c3ccccc3)cc2)cc1OCC |  | inconclusive: 15.8 µM [inhibitor, full curve, poor fit]
17 | O=S(=O)(NC1c2ccccc2Oc2ccccc21)c1cccs1 | inactive: 11.2% | 
18 | O=C(c1cc2ccc3cccnc3c2[nH]1)N1CCN(c2ccc(Cl)cc2)CC1 | inactive: -22.8% | 
19 | Cc1ccc(-c2nnc(Nc3ccccc3)c3ccccc23)cc1S(=O)(=O)NCc1nc2ccccc2[nH]1 |  | inconclusive: 39.8 µM [inhibitor, single point]
20 | Cc1ccc(C)c(N2CCN(CCCNC(=O)c3ccc4nc(N5CCCCC5)sc4c3)CC2)c1 |  | active: 39.8 µM
21 | Cc1c(-c2ccccc2)c(=O)oc2ccc(Br)cc12 |  | inconclusive: 79.4 µM [inhibitor, partial curve, poor fit]
22 | CCOc1ccc(-c2cc(C)n3nc(C(=O)Nc4ccc(C)c(C)c4)cc3n2)cc1 |  | inconclusive: 25.1 µM [inhibitor, full curve, poor fit]

Row | Compound | activity change, negative = inhibition | Potency
23 | CCc1nnc(SCC(=O)Nc2ccc(OC)c(OC)c2)c2cc3occc3n12 |  | inconclusive: 39.8 µM [inhibitor, partial curve, poor fit]
24 | CC(=O)c1c(Nc2ccc(Cl)cc2)oc(C)cc1=O | inactive: -3.74% | 
25 | COc1ccc(-c2nn(C)c3sc(C(=O)Nc4cc(OC)c(OC)c(OC)c4)cc23)cc1OC |  | inconclusive: 50.1 µM [inhibitor, partial curve, poor fit]
26 | Cc1cc(C)cc(-n2c(SCC(N)=O)nc3c(oc4ccccc43)c2=O)c1 |  | inconclusive: 56.2 µM [inhibitor, partial curve, poor fit]
27 | CCOc1ccccc1NC(=O)N1CCN(Cc2nc3ccc(C)cc3o2)CC1 |  | inconclusive: 100 µM [inhibitor, single point]
28 | CCOc1ccc(-c2nnc(SCC(=O)NCc3ccccc3)nc2-c2ccc(OCC)c(OC)c2)cc1OC |  | inconclusive: 39.8 µM [inhibitor, single point]
29 | O=C(CSc1nc2ccccc2nc1Cc1ccccc1)N1CCCCC1 |  | inconclusive: 50.1 µM [inhibitor, partial curve, poor fit]
30 | COc1cc(OC)cc(C(=O)Nc2ccc3c(c2)N(C2CCCC2)C(=O)c2ccccc2S3)c1 |  | inconclusive: 100 µM [inhibitor, single point]
31 | Cc1ccc2[nH]c(CSc3nnc(NC(=O)c4ccccc4C)s3)cc(=O)c2c1 |  | inconclusive: 39.8 µM [inhibitor, partial curve, poor fit]
32 | Cc1cc(C)c(C(=O)Nc2ccccc2C)c(SCC(=O)NC2CCCCC2)n1 | inactive: -7.76% | 
33 | CC(C)CCNC(=O)Nc1ccc2c(c1)N(C)C(=O)c1ccccc1S2 |  | inconclusive: 8.91 µM [inhibitor, full curve, poor fit]
34 | CC(C)CCOc1ccc(C(=O)CCN(C)C)cc1 | inactive: -18.5% | 
35 | Cc1ccc2nc(Nc3nc(CSc4ncccn4)cc(=O)[nH]3)nc(C)c2c1 |  | inconclusive: 79.4 µM [inhibitor, partial curve, poor fit]
36 | CC(=O)c1ccc(NC(=O)CC2Nc3cccc4cccc(c34)NC2=O)cc1 (stereo unspecified) |  | active: 79.4 µM
37 | Cc1nn(-c2ccc(F)cc2)c(-n2cccc2)c1C(=O)NCCCN1CCN(c2ccccc2F)CC1 | inactive: -15.5% | 
38 | CCCC(=O)n1nc(NCc2ccc(OCC)cc2)nc1NCc1ccc(OCC)cc1 | inactive: 6.22% | 
39 | CC(Sc1nnc(-c2cccs2)n1C1CC1)C(=O)N1CCc2ccccc2C1 (stereo unspecified) | inactive: -0.694% | 
40 | Cc1ccc(/C(O)=C2\C(=O)C(=O)NC2c2ccc(C)cc2)cc1 (stereo unspecified) | inactive: 6.35% | 
41 | COc1cccc(NC(=O)C2CCCN(c3nnc(-n4c(C)ccc4C)s3)C2)c1 (stereo unspecified) |  | inconclusive: 5.01 µM [inhibitor, partial curve, poor fit]
42 | CCN1CCN(c2c(S(=O)(=O)c3ccccc3)cnc3ccc(Cl)cc23)CC1 |  | inconclusive: 100 µM [inhibitor, single point]
43 | OCc1nc2ccccc2n1Cc1c(F)cccc1Cl |  | inconclusive: 100 µM [inhibitor, single point]
44 | CC(C)C(=O)/C(C#N)=C\c1ccc(OCc2cccc(F)c2)cc1 |  | inconclusive: 50.1 µM [inhibitor, partial curve, poor fit]

Row | Compound | activity change, negative = inhibition | Potency
45 | COc1ccccc1N(CC(=O)Nc1ccc(C)c(Cl)c1)S(=O)(=O)c1ccc(C)cc1 |  | inconclusive: 14.1 µM [inhibitor, full curve, poor fit]
46 | COc1ccc(-c2noc(CN3CCN(c4cccc(Cl)c4)CC3)n2)cc1 |  | inconclusive: 28.2 µM [inhibitor, partial curve, poor fit]
47 | Cc1cccc(N2CCN(S(=O)(=O)c3ccc(F)c(C(=O)Nc4ccc(C(C)C)cc4)c3)CC2)c1C |  | inconclusive: 0.316 µM [inhibitor, full curve]
48 | Cn1nc(-c2ccccc2F)c2cc(C(=O)N3CCN(c4ccc(F)cc4)CC3)sc21 |  | inconclusive: 8.91 µM [inhibitor, full curve, poor fit]
49 | CCn1cc(S(=O)(=O)c2ccc(C)cc2)c(=O)c2cc(F)c(N3CCCCCC3)cc21 |  | inconclusive: 56.2 µM [inhibitor, partial curve, poor fit]
50 | CCCCSc1nc2c(c(=O)n(C)c(=O)n2C)n1C/C=C/c1ccccc1 |  | inconclusive: 28.2 µM [inhibitor, partial curve, poor fit]
51 | N=C(N)c1cc(N)cc(C(=N)N)c1 | inactive: 9.89% | 
52 | O=C(CCc1ncc(-c2ccccc2F)o1)N1CCN(CC(=O)N2CCCCC2)CC1 | inactive: -0.663% | 
53 | Cc1ccc(C)c(N2CCN(C(=O)Cn3nc(Cc4cccnc4)c4ccccc4c3=O)CC2)c1 |  | active: 70.8 µM
54 | O=C(CSc1nnc(-c2ccccc2)o1)N1CCCc2ccccc21 |  | inconclusive: 7.08 µM [inhibitor, full curve, poor fit]
55 | CCn1c(=O)cc(SCC(=O)N2CCN(c3cc(C)ccc3C)CC2)c2ccccc21 |  | inconclusive: 14.1 µM [inhibitor, full curve, poor fit]
56 | COc1cc(C(=O)Nc2cccc3cccnc23)ccc1C | inactive: 15.9% | 
57 | Cc1ccc(CNC2C3CC4CC(C3)CC2C4)cc1 (stereo unspecified) | inactive: -5.21% | 
58 | Cc1cc(C)n2nc(SCC(=O)Nc3cccc(C(F)(F)F)c3)nc2n1 | inactive: -7.39% | 
59 | CCn1c(=O)n(CC)c2cc(N3CCCCC3)c(NC(=O)Nc3ccccc3C(F)(F)F)cc21 |  | inconclusive: 25.1 µM [inhibitor, full curve]
60 | C=CCc1ccccc1OCC(O)CN1CCN(c2ccccc2)CC1 (stereo unspecified) |  | inconclusive: 79.4 µM [inhibitor, partial curve, poor fit]
61 | C=CCSc1nnc(NC(=O)c2cc(=O)c3ccc(Br)cc3o2)s1 | inactive: -13.4% | 
62 | COc1ccc(/C=C/C(=O)Nc2nc3n(n2)C(c2ccccc2)C=C(c2ccccc2)N3)cc1 (stereo unspecified) |  | inconclusive: 4.47 µM [inhibitor, partial curve, poor fit]
63 | CC(NC(=O)CNC(=O)c1cccs1)c1ccc2ccccc2c1 (stereo unspecified) | inactive: 3.18% | 
64 | Cn1c(CC(=O)Nc2ccc(Cl)cc2)nnc1SCC(=O)NC12CC3CC(CC(C3)C1)C2 | inactive: -25.8% | 
65 | Cc1sc2ncnc(N3CCN(c4ccccc4)CC3)c2c1-c1ccc(F)cc1 |  | inconclusive: 25.1 µM [inhibitor, partial curve, poor fit]
66 | CC(C)(C)C(=O)OC1=CN(Cc2ccccc2)S(=O)(=O)c2ccccc21 |  | inconclusive: 39.8 µM [inhibitor, partial curve, poor fit]
